The text below walks through data of the supplement of paper PMC10338343.

± gives the standard deviation. In all, about 3,700 sequences were measured (“pre-steady-state target cleavage rate”: median about 0.02, highest 2% from about 0.23 on). Only a part is listed here, and it is no random draw.

In the assay the test system is MILI (PIWIL2) piRISC loaded with Kctd7 piRNA (26 nt). As to the kind of experiment: pre-steady-state target cleavage rate (min^-1); MIWI and MILI are mouse PIWI proteins and EfPiwi is from a freshwater sponge; tags in brackets are library labels; higher = faster piRNA-guided slicing of the target. The following applies: guide: Kctd7 piRNA 5'p-UGUUAAUCUCUCAGAGAAGGUGACAG; auxiliary factor: 500 nM mouse GTSF1. The essentials: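 Cleave-'n-Seq reactions paired 0.1 nM transcribed, DNA-blocked target RNA library with 1 nM active affinity-purified piRISC holding one synthetic guide, plus or minus 500 nM GTSF1 partner protein, in HEPES–potassium acetate buffer at 33 °C for 0–8 or 0–960 min. After sequencing of uncleaved targets and normalisation to depth and weakly complementary targets, the pre-steady-state cleavage rate was taken from a burst-and-steady-state fit. Three trials were pooled, and k3 was capped at 0.0001 min^-1.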
Take UAGUGACAGACGUUCUCUGAGAGAUUUACA: the “pre-steady-state target cleavage rate” value is 0.0633 ± 0.015. UAGUGACAGUGGUUCUCUGAAAGAUUAACA: the “pre-steady-state target cleavage rate” value was less than 0.0001. Consider UAGUGAAUCACCUUCUCUGAGAGAUUAACA, for which the “pre-steady-state target cleavage rate” value was found to be 0.232 ± 0.03. The result for UAGUGAGUCAGCUUCUCUGAGACAUUAACA reads 0.0393 ± 0.0064. On to UAGUGUGUCACGUUCUCUGAGAGAUUUACA, for which the “pre-steady-state target cleavage rate” value turned out to be 0.0913 ± 0.017. As for UAGUGUGUCACCUUCUGUGAGAGAUAAACA, the “pre-steady-state target cleavage rate” value amounted to 0.0484 ± 0.015. With UAGUGACUCACCUUCUUUGAGAGAUUAACA the figure was 0.208 ± 0.015; with UAGUCAGUCUCCUUCUCUGAGAGAUUAACA, 0.162 ± 0.011; with UAGUGACACACCUUCUCUUAGAGAUUAACA, 0.0759 ± 0.0074.

For the sequence UAGUCUGUCAGCUUCUCUGAGAGAUUUACA, the “pre-steady-state target cleavage rate” value turned out to be 0.0747 ± 0.011. Take UAGUGACAGACCUACACUGAGAGAUUAACA: the “pre-steady-state target cleavage rate” value amounted to 0.0226 ± 0.0077. Consider UAGUCUGUCACCUUGUCUGAGAGUUUAACA, for which the “pre-steady-state target cleavage rate” value stood at 0.059 ± 0.018.

As to “UAGUGACACACCUUCUCUGAGAGAUUAACC [g2:g22:cont:t1C]”, the “pre-steady-state target cleavage rate” value was 0.143 ± 0.022. Turning to UAGUGACUCAGCUUCUCUGAGAGAUUAACA, the “pre-steady-state target cleavage rate” value worked out at 0.0935 ± 0.0069. Turning to UAGUCUGUCACCUAGUCUGAGAGAUUAACA, the “pre-steady-state target cleavage rate” value was 0.126 ± 0.012. With UAGUGAGUCACCUUCUCUGAGAGAUGAACA the figure was 0.111 ± 0.029; with UAGUGACAGACCUUCUCAGUGAGAUUAACA, 0.00677 ± 0.0043; with UAGUGACACACCUUCUGUGAGAGAUUAUGA, 0.029 ± 0.012.

As to UAGUCUGUCACCGUUCUCUGAGAGAUUAACA, the “pre-steady-state target cleavage rate” value is 0.133 ± 0.0094. The result for UAGUGAGACACCUUCUCUGAGAGAUUAACA reads 0.185 ± 0.011; that for UAGUGACAGUGGUUCCUCUGAGAGAUUAACA, 0.00471 ± 0.0018. As to UAGUGACAGUGCUUCUCUGAGAGAUCAACA, the “pre-steady-state target cleavage rate” value came to 0.00536 ± 0.0024. With UAGUGACAGACCUUCUCUGAGAGUUUAACA, the “pre-steady-state target cleavage rate” value amounted to 0.0464 ± 0.011. With UAGUGUGUGUCCUUCUCUGAGAGAUUAAGA, the “pre-steady-state target cleavage rate” value was 0.00638 ± 0.0038. For the sequence UAGUGACACACAUUCUCUGAGAGAUUAACA, the “pre-steady-state target cleavage rate” value was 0.076 ± 0.01.

Consider UAGUGACUCACCUUCUCUGAGAGAAAAACA, for which the “pre-steady-state target cleavage rate” value came out at 0.0439 ± 0.017. The result for UAGUCUGUCACGUUCUCUCAGAGAUUAACA reads 0.0372 ± 0.0049. As to UAGUGACAGUCCUUCGCUGAGAGAUUAACA, the “pre-steady-state target cleavage rate” value was 0.0352 ± 0.0063. In the case of UAGUGACAGUCCUUCUUCUGAGAGAUUAACA, the “pre-steady-state target cleavage rate” value came out at 0.00966 ± 0.0033. As to UAGUGACAGACCUUCUCUGAGAGAUUUACA, the “pre-steady-state target cleavage rate” value worked out at 0.0731 ± 0.015. Take UAGUGACUGACCUUCUCUGAGAGUUUAACA: the “pre-steady-state target cleavage rate” value stood at 0.0895 ± 0.025. As for UAGUGACUGACCUUCUCUCAGAGAUUAACA, the “pre-steady-state target cleavage rate” value was determined as 0.0436 ± 0.012. The result for UAGUGACAGUGGAUCUCAGAGACAUUAACA reads less than 0.0001. Take UAGUGAGAGACCUUCUCUGAGAGAUUAACA: the “pre-steady-state target cleavage rate” value was determined as 0.0931 ± 0.013. Consider UAGUGAGUCACCUUCACUGAGAGAUAAACA, for which the “pre-steady-state target cleavage rate” value worked out at 0.0245 ± 0.0095. With UAGUGAGUCACGAACUCUGAGAGAUUAACA the figure was 0.0731 ± 0.0043; with UAGUCUGUCACUUUCUCUGAGAGAUUAACA, 0.188 ± 0.0089. In the case of UAGUGACAGACCUUCACUGAGAGAUAAACA, the “pre-steady-state target cleavage rate” value came to 0.018 ± 0.0081. For UAGUGUGUCACCUUCUCUGAGAGAUUUAACA, the “pre-steady-state target cleavage rate” value is 0.391 ± 0.052.

In the case of UAGUGACUCACCUUCUCUGAGAGAAUUAACA, the “pre-steady-state target cleavage rate” value came out at 0.19 ± 0.035. With UAGUGACUCUCCUUCUCUGAGAGAUUAUCA the figure was 0.0488 ± 0.0084; with UAGUGACACACCUUCAGUGAGAGAUUUUGA, 0.00783 ± 0.0054. With UAGUGACAGUCCUUGUCUCAGAGAUUAACA the figure was 0.009 ± 0.0037; with UAGUCUGUCACCUUGUCUGAGAGAUAAACA, 0.0456 ± 0.012; with UAGUCUCACACCUUCUCUGAGAGAUUAAGA, 0.0183 ± 0.007. In the case of UAGUGACAGUGGAUCUCUGAGAGUUAAACA, the “pre-steady-state target cleavage rate” value was less than 0.0001.
